# In the supplement of paper PMC11417369:
# ± gives the standard deviation of the averaged measurements. Some of the results follow.
# Tested on: PfAP2-I AP2 domain 3 (GST-tagged)
# Experiment: gcPBM binding intensity (ln(normalized median fluorescence intensity)); higher = stronger DNA binding
# How it was run: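 GST-tagged P. falciparum DNA-binding domains, expressed in E. coli (about 25 μg on average), were applied for 1 h to an Agilent 4 × 180k array of primer-extended double-stranded 36-bp intergenic genomic probes plus negative controls. The binding buffer was 1× PBS with 1% milk, 0.2 mg/ml BSA, 0.5% salmon testes DNA and 0.03% Triton X-100. Bound protein was detected with Alexa488 anti-GST antibody and scanned at 488 nm. Binding intensity is the highest Masliner-normalised natural-log median intensity across replicate spots of either probe orientation.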
row,Sequence,gcPBM binding intensity (ln)
1,ACGTATCAATTTATTGGTACACATAAATATATATAT [XGTACX_site5556],9.08 ± 0.2
2,ACATTGAACAAAATAGTAAGCACATATATATATATA [GTGCAC_negctrl_site679],9.39 ± 0.42
3,ATCATTTTGTGTTCAAGTACATAATGTTTTACACAA [XGTACX_site3565],7.77 ± 0.47
4,AACGAAGCATAAAATGTTATGTATATATATAAATAT [TGCATGCA_negctrl_site304],7.61 ± 0.69
5,TACCAAAAAAAAAAAATAATAATAAAAAAAAAAAAA [TGCATGCA_negctrl_site11],7.85 ± 0.68
6,GCAAAACATTTTTAAAATAAAAATAATAAAATATAT [CACACA_negctrl_site219],7.62 ± 0.64
7,CATACATTATAAGATACATGCATATATCTGAACATA [TGCATGCA_site797],8.27 ± 0.74
8,ATGTGGAAATAGAGCACACATATATATAATATATAT [CACACA_site884],9.63 ± 0.24
9,ATATATTATATAAAAAGTACTAAAATAGTAAGATGT [XGTACX_site7493],8.2 ± 0.65
10,TATTCATTAAACCATACACACATAATTTTTTTATAA [CACACA_site4618],7.51 ± 0.43
11,GTGTGCCAAATTAGCACACACATATATACATGAATT [CACACA_site7346],9.34 ± 0.15
12,TTATGAAAATATTTTTTTCGTTTGATGTATATGTTT [CACACA_negctrl_site1556],7.43 ± 0.57
13,AAAAAATATAAATATGTAAAAAGAGAAAAAAAAAAG [GTGCAC_negctrl_site9],7.72 ± 0.48
14,TGAAAATGGGAACCGTGTACAGGGCAGTTATAGGGG [XGTACX_site2950],8.86 ± 0.62
15,TATAAACATAAAACCAGTACATATATATTTTTCTTC [XGTACX_site212],7.6 ± 0.41
16,ATATTTAATTCATCATGTACACAAATAAGAAACAAA [XGTACX_site8076],8.22 ± 0.3
17,TTGTTATGTTTTATTTGTACGTAGGTTTCTATCAAA [XGTACX_site7636],8.12 ± 0.35
18,AAATTGAAATATTCCTGTACACATTTTGAAAACTTA [XGTACX_site6101],7.75 ± 0.7
19,AAAATATAGTAACACATACACACATATATATTTATA [CACACA_site2504],7.76 ± 0.65
20,TATTAAACTAAATGTAGTACATACACAAAAGAAACC [XGTACX_site606],8.39 ± 0.45
21,TGTTTGAATATAATCACACATTTATATAAAAAGTTA [CACACA_site5237],7.36 ± 0.35
22,TCTTTTTGCATGTGTGTGCGCACAAAATACACAAAA [GTGCAC_site9718],10.5 ± 0.028
23,TAACAATAACTTTATACACACATAATATAAATATAT [CACACA_site7635],7.62 ± 0.35
24,TAAAATTTTAACAAAAAAAAAAAAAAAAAAAGAAAA [CACACA_negctrl_site1335],7.4 ± 0.47
